# Laboratory results reported in PMC4336329 (PLoS ONE, 2015).
# In all, about 310,000 compounds went through this assay and about 2,200 (0.71%) showed an effect of 50% or more. Effects have a minus sign here. This is one part of the list.
# Molecular target: human ether-à-go-go-related gene (hERG) potassium channel (human, UniProt Q12809)
# Assay: primary screen, population patch clamp on CHO cells stably expressing hERG
# Sequence of human ether-à-go-go-related gene (hERG) potassium channel (Q12809 whole entry, looked up): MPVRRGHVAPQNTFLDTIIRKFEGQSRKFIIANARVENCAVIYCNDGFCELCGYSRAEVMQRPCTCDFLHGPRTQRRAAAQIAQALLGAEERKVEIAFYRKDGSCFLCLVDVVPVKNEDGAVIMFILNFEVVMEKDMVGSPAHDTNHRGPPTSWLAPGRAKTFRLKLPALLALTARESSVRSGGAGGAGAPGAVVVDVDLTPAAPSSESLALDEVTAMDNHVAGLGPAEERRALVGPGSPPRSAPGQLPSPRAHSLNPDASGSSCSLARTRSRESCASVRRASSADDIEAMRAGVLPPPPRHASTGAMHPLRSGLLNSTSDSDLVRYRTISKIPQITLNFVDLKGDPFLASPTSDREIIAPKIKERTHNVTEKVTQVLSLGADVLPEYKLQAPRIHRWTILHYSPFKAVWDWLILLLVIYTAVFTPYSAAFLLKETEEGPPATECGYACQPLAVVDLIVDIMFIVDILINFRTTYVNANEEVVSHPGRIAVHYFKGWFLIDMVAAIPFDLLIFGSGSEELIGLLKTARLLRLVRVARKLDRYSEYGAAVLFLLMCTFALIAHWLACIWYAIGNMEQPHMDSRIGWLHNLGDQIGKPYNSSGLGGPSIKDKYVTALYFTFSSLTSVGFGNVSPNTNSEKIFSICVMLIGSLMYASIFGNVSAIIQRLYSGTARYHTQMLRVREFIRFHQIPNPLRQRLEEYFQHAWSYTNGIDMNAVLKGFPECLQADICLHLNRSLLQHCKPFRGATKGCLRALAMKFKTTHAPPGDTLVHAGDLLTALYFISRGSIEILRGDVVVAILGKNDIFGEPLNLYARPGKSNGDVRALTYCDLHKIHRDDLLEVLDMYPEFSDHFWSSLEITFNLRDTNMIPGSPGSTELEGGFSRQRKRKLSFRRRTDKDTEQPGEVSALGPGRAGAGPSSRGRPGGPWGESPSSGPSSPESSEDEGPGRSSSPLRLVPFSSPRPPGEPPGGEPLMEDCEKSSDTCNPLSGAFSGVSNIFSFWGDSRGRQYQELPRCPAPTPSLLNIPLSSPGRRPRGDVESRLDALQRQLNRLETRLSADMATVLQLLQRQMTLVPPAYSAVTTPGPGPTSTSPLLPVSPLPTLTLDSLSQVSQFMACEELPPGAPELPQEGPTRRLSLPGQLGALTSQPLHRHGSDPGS
row,Compound,"hERG current change (%, negative = inhibition) at 1uM [%]"
1,Cc1nn(Cc2ccccc2)c(C)c1C(=O)NCC(c1cccs1)N1CCOCC1 (centres unmarked),5.84
2,COc1ccc(N2CCN(CCCNC(=O)c3ccc(CS(=O)(=O)c4ccc(OC)cc4)o3)CC2)cc1,-43.1
3,COc1cccc(/C=C(/CC(=O)Nc2ccc(N3CCOCC3)cc2)c2nc3ccccc3s2)c1,12.7
4,COc1cc(C(=O)NNC2=NC(C)(C)Cc3cc(C)c(C)cc32)cc(OC)c1OC,16.8
5,COc1cccc(NC(=O)CCC2CCN(C(=O)c3scnc3C)CC2)c1,4.22
6,Cc1ccnc2nc(C(=O)OCC(=O)NC3CCCC(C)C3C)nn12 (centres unmarked),2.22
7,CN(CCO)c1nc(NCc2ccccc2)c2cnn(C)c2n1,14.7
8,CCCn1c(C(=O)c2ccccc2OC)nc2ccccc21,-5.99
9,CSCCCN1CC[C@@H](N2CCN(c3ccccc3F)CC2)[C@H](O)C1,3.23
10,Cc1ccccc1-c1nc(CS(=O)(=O)CC(=O)N2CCCCC2)c(C)o1,2.38
11,COc1ccccc1CNC(=O)C(C)NS(=O)(=O)c1ccccc1 (centres unmarked),5.92
12,Cc1noc(C)c1COc1cccc(C(=O)N2CCc3ccccc32)c1,8.04
13,O=C(CSc1nnc(Cc2cc(=O)[nH]c(=O)[nH]2)n1-c1ccccc1)N1CCCC1,20.2
14,O=C(COc1ccc2ccccc2c1)Nc1cccc2c1C(=O)NC2=O,9.53
15,Cc1nc(C#N)c(N/N=C/c2cccc(Cl)c2)o1,5.76
16,CCCCOc1ccc(Cc2c(Cl)nc(SC)nc2N2CCOCC2)cc1,14.9
17,CCSc1nnc(NC(=O)C2C3C=CC(C3)C2C(=O)O)s1 (centres unmarked),6.02
18,CN(C(=O)c1cc(COc2ccc(F)cc2Cl)on1)C1CCCc2ccccc21 (centres unmarked),15.2
19,CCCc1[nH]nc2c1C(c1ccc(Br)s1)C(C#N)=C(N)O2 (centres unmarked),7.85

row,Compound,"hERG current change (%, negative = inhibition) at 1uM [%]"
1,COc1ccc(C(=O)/C=C/Nc2ccc(S(=O)(=O)Nc3nc(C)cc(C)n3)cc2)c(OC)c1,5.35
2,Cc1noc(C)c1S(=O)(=O)N(C)CC(=O)NCc1ccccc1,2.24
3,Cn1nnnc1SCC(=O)N1CCN(S(=O)(=O)c2ccc(Cl)cc2)CC1,4.43
4,CC1CCN(C(=O)C(NS(=O)(=O)c2cccc3nsnc23)c2ccccc2)CC1 (centres unmarked),-30
5,CCOc1ccc(Cl)cc1S(=O)(=O)n1cnc2ccccc21,0.503
6,COc1ccc(-n2nc([N+](=O)[O-])c(=NCc3ccco3)n2O)cc1,13.4
7,CCC(=O)N=c1sc2c(C)cc(C)cc2n1CC(=O)OC,3.44
8,O=C(NCCS(=O)(=O)N1CCN(c2ccccc2F)CC1)C1CC(=O)N(c2ccccc2)C1 (centres unmarked),11.6
9,CC1Cc2ccccc2N1C(=O)c1cc2sccc2n1Cc1ccc(F)cc1 (centres unmarked),15.9
10,COc1ccc(CNC(=S)Nc2ccccc2Cl)cc1,12.8
11,Cc1cc(NC(=O)C(C)SCC(=O)Nc2ccccc2C(C)(C)C)no1 (centres unmarked),11.1
12,O=C(CN1C(=O)NC2(CCc3ccccc32)C1=O)c1ccc(F)cc1 (centres unmarked),-41.7
13,COc1ccc(NC(=S)N/N=C/c2ccc(F)cc2)cc1OC,15.5
14,COc1ccccc1NC(=O)CCCCCN1C(=O)c2cccc([N+](=O)[O-])c2C1=O,7.21
15,CCC1CCCCN1CCCNC(=O)C1CCCN(S(=O)(=O)N2CC(C)CC(C)C2)C1 (centres unmarked),9.94
16,O=C(CSc1nccc(=O)[nH]1)Nc1ccc(F)c(Cl)c1,9.56
17,COc1cc(Nc2c3c(nc4ccccc24)CCCC3)cc(OC)c1OC,-48.3
18,N#Cc1ccc(C(=O)N(Cc2ccccc2)c2ccccc2)cc1,6.37
19,c1cncc(C(c2nnnn2C2CCCCC2)N2CCCCC2)c1 (centres unmarked),5.55

row,Compound,"hERG current change (%, negative = inhibition) at 1uM [%]"
1,Cc1ccc(C(=O)NNC(=O)Cc2ccccc2)cc1,3.37
2,CC(C)[C@H](NC(=O)OCc1ccccc1)C(=O)OCc1ccccc1,9.37
3,CCCCOc1cccc(C(=O)NC(=S)Nc2cccnc2)c1,8.87
4,COc1cc2oc3ccc(C#Cc4ccc(N)cc4)cc3c(=O)c2cc1OC,11.4
5,CCOC(=O)Cc1cnc(NC(=O)CSc2nc3ncnc(N)c3[nH]2)s1,7.19
6,Cc1cc(C)c(S(=O)(=O)N(C)CC(=O)NCCN2CCOCC2)c(C)c1,-5.19
7,Cc1c(C(=O)N2CCN(c3ccc(F)cc3)CC2)sc2ncnc(N3CCN(c4ccccn4)CC3)c12,12.1
8,CCOC(=O)N(C)c1ccc(C(O)(C(=O)OCC)C(F)(F)F)cc1 (centres unmarked),2.99
9,CCc1noc(C)c1C(=O)Oc1ccc(N(C)S(=O)(=O)c2ccc(C)c(C)c2)cc1,14.7
10,O=C(Nc1ccc(O)cc1)C1CC=CCC1 (centres unmarked),-2.83
11,COCC(=O)Nc1cc(C)cn(Cc2ccc(F)cc2)c1=O,-3.54
12,O=C1N/C(=N\N=C\c2ccc3ncccc3c2)SC1Cc1ccc(SC(F)F)cc1 (centres unmarked),13.7
13,Cc1cccc(NC(=O)c2cnn(-c3ccc(F)cc3)c2C2CCNCC2)c1C.Cl,9.34
14,Cc1c(Cl)c(-c2n[nH]c(=S)n2CC(C)C)nn1C,8.72
15,CCOc1cc(C(=O)Oc2cc(C)[nH]c(=O)c2[N+](=O)[O-])cc(OCC)c1OCC,15.3
16,NC(=O)CSc1nnc(-c2cc3ccccc3o2)n1Cc1ccccc1,8.82
17,Cc1nc2c(-c3ccccc3)cnn2c(N2CCOCC2)c1C,9.27
18,COC(=O)Cn1cc(/C=C/c2cc[n+](C)cc2)c2ccccc21.[I-],9.15
